# Screen size: about 48,000 compounds; about 120 (0.25%) were called active. Inconclusive results (about 4%) are left out. The call rests on the fitted dose curve; in most records, active means well fitted activation curve with a large enough effect; inconclusive means small, poorly fitted or top-dose-only effect, or another doubt; inactive means no such curve, though single readings can be large or run the other way. Only a part is listed here, and it is no random draw. Where no call is shown, the source filed none.
# Experiment: Primary qHTS for Identification of Small Molecule Activators of Huntingtin-Antisense Promoter Activity; further: nearly all actives have a fitted effect of over 55% in size
# Conditions: HEK293 HTT-AS promoter firefly luciferase reporter, 24 h; activity change, positive = activation: at 57.5 µM (top of the series), percent change from vehicle, -100% = no light
# Procedure, shortened: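 Firefly luciferase readout (Dual-Glo, 10 min RT) after 24 h, 37 °C compound exposure (final up to 57.5 uM) of HEK293 reporter cells cultured 24 h beforehand; PTC124 at 50 uM final as control inhibitor; activity scaled vehicle 0%, zero RLU -100%.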
# Potency means the concentration at half of the fitted maximal effect.
Compound,"activity change, positive = activation",Potency
COc1ccc(NC(=O)CC2C(=O)N(c3ccccc3)C(=O)N2Cc2cccnc2)cc1 (stereo not drawn),9.07%,–
Cc1oc2ccc(O)c(CN3CCN(C)CC3)c2c1C(=O)Nc1ccccc1,4.33%,–
CCCCCOc1ccc(C2SC(=O)NC2=O)cc1OCC (stereo not drawn),inactive: 13.3%,–
Cc1cc(C)cc(OCCCn2c(-c3ccc(Cl)cc3)nc3ccccc3c2=O)c1,-1.83%,–
Cc1ccc(-c2cc(C(=O)N(Cc3ccccc3)Cc3ccco3)no2)cc1F,-5.92%,–
O=C(Nc1ccc(F)cc1F)c1noc2c1CCc1ccccc1-2,95.1%,–
CCc1ccc(NC(=O)CC2C(=O)N(c3ccccc3)C(=O)N2C(C)C)cc1 (stereo not drawn),25.8%,–
Cc1ccc(C)c(NC(=O)Cn2c(=O)n(CCC(=O)NCc3ccc4c(c3)OCO4)c(=O)c3ccccc32)c1,inactive: -8.08%,–
Cc1ccc(-c2cc(NC(=O)c3ccccc3Cl)on2)cc1,–,active: 4.47 µM
CCCOc1ccc(NC(=O)CC2C(=O)N(c3ccc(C)cc3)C(=O)N2C(C)C)cc1 (stereo not drawn),-14%,–
C=C(C)Cn1c(SCC(=O)Nc2ccccc2C)nc2sc3c(c2c1=O)CCCC3,-11%,–
O=C(Nc1ncc(-c2cc(C(F)F)nn2-c2c(Cl)cccc2Cl)s1)C1CC1,inactive: -42.3%,–
O=S(=O)(Nc1ccc(-c2ccc(N3CCCCC3)nn2)cc1)c1ccc(OC(F)(F)F)cc1,-3.32%,–
Cc1nn(-c2ccc(N3CCCCC3)nn2)c(C)c1CCC(=O)NCc1ccc(F)cc1,6.33%,–
O=C(CSc1nc(-c2cccs2)nc2cc(=O)[nH]n12)Nc1ccccc1,-10.5%,–
Cn1c(=O)n(C)c2cc(NS(=O)(=O)c3ccc(F)cc3)c(NCc3ccccc3)cc21,46.3%,–
CC1=C(c2ccc(C(C)C)cc2)S(=O)(=O)N=C1N1CCC(C(=O)Nc2ccc(C)cc2)CC1,inactive: -30.4%,–
COc1ccccc1CNC(=O)c1cnc2sc(N3CCCCC3)nn2c1=O,3.81%,–
Cc1cccc(NC(=O)CSc2nc(-c3cccs3)nc3cc(=O)[nH]n23)c1,-11.1%,–
CCOC(=O)c1c(NC(=O)c2cc(-c3ccc(OC)c(OC)c3)on2)sc2c1CCCC2,1.64%,–
COc1ccc2c(C)c(CC(=O)NCc3ccccc3Cl)c(=O)oc2c1OC,-14.6%,–
CN(C)S(=O)(=O)N1CCC(n2c(C(F)(F)F)nc3cccnc32)CC1,0.498%,–
CCCOc1ccc(C(=O)Nc2cc3c(cc2N2CCCCC2)n(C)c(=O)n3C)cc1,1.72%,–
COCCCNC(=O)c1cnc2sc(N3CCCCC3)nn2c1=O,2.6%,–

Compound,"activity change, positive = activation",Potency
Cc1ccc2oc(-c3ccc(Cl)c(NC(=O)c4cc5ccccc5o4)c3)nc2c1,81.1%,–
Cc1ccc(NC(c2nnc(-c3ccccc3)o2)c2ccccc2F)c(Cl)c1 (stereo not drawn),2.54%,–
Cc1ccc(S(=O)(=O)C(CNS(=O)(=O)c2ccc(F)c(C(F)(F)F)c2)c2ccco2)cc1 (stereo not drawn),inactive: 4.18%,–
COc1ccccc1CNC(=O)CCc1c(C)nn(-c2ccc(N3CCCCC3)nn2)c1C,17.7%,–
COC(=O)c1ccc(NC(=O)CN(Cc2ccccc2)S(=O)(=O)c2ccc(Cl)cc2)cc1,-47.9%,–
O=C(C1CCN(c2ncnc3c2nc2n3CCCCC2)CC1)N1CCN(c2ccc(Cl)cc2)CC1,inactive: -10.6%,–
CCOc1ccc(C2C(=O)N(C3CCCCC3)CC(=O)N2CCc2ccccc2)cc1OC (stereo not drawn),-25.7%,–
COc1ccccc1NC(=O)c1ccc2c(Cl)c3c(nc2c1)CCCC3,inactive: 5.26%,–
Cc1ccc(-n2ncc3c(NCCCN4CCOCC4)ncnc32)cc1Cl,inactive: -7.32%,–
COc1cc(Cl)c(C)cc1NC(=O)c1cc2ccc3cccnc3c2[nH]1,inactive: -15.1%,–
CCOC(=O)C=C[C@H](C[C@@H]1CCNC1=O)NC(=O)[C@@H](CC(=O)[C@@H](NC(=O)c1cc(C)on1)C(C)C)Cc1ccc(F)cc1,inactive: 10.6%,–
Cc1ccc2nc(NCc3ccccc3)c3nnnn3c2c1,6.26%,–
COC(=O)c1cc2oc3ccccc3c2n1Cc1nc(-c2ccccc2Cl)oc1C,-7.19%,–
Cc1ccc(NC(=O)CCOc2ccccc2)cc1,–,active: 10 µM
COC(=O)c1ccc(NC(=O)CC2C(=O)N(c3cccc(OC)c3)C(=O)N2Cc2ccco2)cc1 (stereo not drawn),-4.33%,–
Cc1ccccc1OCCCCn1c(-c2ccc(Cl)cc2)nc2ccccc2c1=O,3.15%,–
COc1cc(OC)c(NS(=O)(=O)c2ccc3oc(=O)c4ncn(C)c4c3c2)cc1Cl,-13.6%,–
COc1ccc(C2C=C(c3ccc(Cl)c(Cl)c3)Nc3ncnn32)cc1 (stereo not drawn),44.5%,–
CCOC(=O)C1=C(CN2CCN(c3cccc(Cl)c3)CC2)NC(=O)NC1c1ccc(Cl)cc1 (stereo not drawn),inactive: -12.3%,–
CC(C)(C)c1ccc(OCc2nnc(-c3ccccc3)o2)cc1,19%,–
Cc1ccccc1NC(=O)c1c(C)oc2ccc(O)c(CN3CCOCC3)c12,-17.4%,–
NS(=O)(=O)c1ccc(Nc2nc(OCC3CCCCC3)c3[nH]cnc3n2)cc1,inactive: 1.76%,–
Cc1ccc(CNC(=O)Nc2cc(C(=O)NCc3ccc(C(C)C)cc3)ccc2N2CCCC2)cc1,inactive: -12.9%,–
Cc1ccccc1C(=O)Nc1ccc2nc(SCC(=O)N3CCc4ccccc43)sc2c1,inactive: -7.96%,–

Compound,"activity change, positive = activation",Potency
COc1ccc(N(C(=O)/C=C\C(=O)Nc2ccc(C)cc2)C(C(=O)NCc2ccco2)c2ccc(C)cc2)cc1 (stereo not drawn),-39.1%,–
CC(C)(c1ccc(O)cc1)c1ccc(O)cc1,"inactive: -10.7% [at 116 µM, percent change from vehicle, -100% = no light]",–
O=C(C1CCN(S(=O)(=O)Cc2ccccc2)CC1)N1CCN(c2ccccc2)CC1,-0.645%,–
CCOC(=O)COc1ccccc1C1C(C(=O)OC)=C(C)NC2=C1C(=O)c1ccccc12 (stereo not drawn),-7.25%,–
O=C(NCCSCc1ccc(Cl)cc1)C1CCN(S(=O)(=O)Cc2ccccc2)CC1,-9.08%,–
COc1ccc(NC(=O)CC2C(=O)N(c3ccc(F)cc3)C(=O)N2Cc2ccco2)cc1 (stereo not drawn),-10.4%,–
COC(=O)c1ccc(NC(=O)CC2C(=O)N(c3ccc(Cl)cc3)C(=O)N2Cc2ccco2)cc1 (stereo not drawn),-10.8%,–
COC(=O)c1cc2c(cc1NC(=O)c1cnn(-c3ccc(C)cc3)c1-n1cccc1)OCO2,3.92%,–
COc1ccccc1-c1cc(C(=O)Nc2ccccc2C(F)(F)F)no1,23%,–
CCOC(=O)c1ccc(NC(=O)Cn2cc(C(=O)c3ccc(CC)cc3)c(=O)c3ccc(C)nc32)cc1,inactive: -18.3%,–
COc1ccc(OC)c(CNC(=O)c2ccc(-c3nc(CSc4ccccc4)c(C)o3)cc2)c1,-17.1%,–
CC(=O)Nc1ccc(NC(=O)c2ccc3c(c2)NC(=O)c2ccccc2S3)cc1,-7.28%,–
Cc1oc2ccc(O)c(CN3CCCCC3)c2c1C(=O)Nc1cccc(C(F)(F)F)c1,-41%,–
Cc1nn(C)c2c1c(C(F)(F)F)cc(=O)n2CC(=O)N1CCCCC1C (stereo not drawn),inactive: -13.8%,–
CCCOc1ccc(-c2nc(N3CCCCC3)c3ccccc3n2)cc1,6.47%,–
Cc1ccc(CCNC(c2ccc(F)cc2)c2nnc(-c3ccccc3Cl)o2)cc1 (stereo not drawn),-12.9%,–
CCOC(=O)c1cc(C)n(CC2CCC(C(=O)Nc3cccc(C)c3)CC2)c1C (stereo not drawn),6.07%,–
CCc1ccc(NC(=O)CC2C(=O)N(c3ccc(Cl)cc3)C(=O)N2Cc2ccco2)cc1 (stereo not drawn),-1.44%,–
COc1ccc(NC(=O)c2cc3c(=O)n(Cc4ccco4)ccc3nc2C)cc1,-17.5%,–
Cc1nc2cccnc2n1-c1cccc(C(=O)N2CCN(c3ccc(Cl)cc3)CC2)c1,inactive: -45.5%,–
COc1ccc(-c2cc(C(=O)Nc3cccnc3Cl)no2)cc1OC,7.19%,–
COc1ccc(-c2c3c(=O)n(C)c(=O)n(C)c3c3n2-c2ccccc2NC3c2ccco2)cc1 (stereo not drawn),4.23%,–
COCCNC(=O)c1cnc2sc(N3CCC(C)CC3)nn2c1=O,6.81%,–
Clc1ccc(-c2noc3ncnc(NCCc4ccccc4)c23)cc1,inactive: -26.5%,–

Compound,"activity change, positive = activation",Potency
COc1cc(C2NC(=O)c3c(sc4c3CCN(C)C4)N2)cc(OC)c1OC (stereo not drawn),"inactive: 11.2% [at 11.5 µM, percent change from vehicle, -100% = no light]",–
Cn1c(Nc2ccc(C(F)(F)F)cc2)nc2cc(Oc3ccnc(-c4ncc(C(F)(F)F)[nH]4)c3)ccc21,inactive: -24.1%,–
CCOc1ccc(-n2nc3ccc(NC(=O)COc4ccc(OC)cc4)cc3n2)cc1,-60.4%,–
COc1cc(C)cc2oc(=O)c(CC(=O)NCc3cccc(Cl)c3)c(C)c12,-27.7%,–
COc1ccc(Cn2ccc3nc(C)c(C(=O)NCc4ccc(F)cc4)cc3c2=O)cc1,inactive: -19.7%,–
Cc1c(CCOc2ccc(C(=O)O)cc2)c2cc(Cl)ccc2n1C(c1ccccc1)c1ccccc1,inactive: -11.7%,–
Cc1nc2ccn(Cc3cccs3)c(=O)c2cc1C(=O)Nc1ccccc1,-13.1%,–
Cc1cc(S(=O)(=O)Nc2ccc(-c3ccc(N4CCCCCC4)nn3)cc2)c(C)cc1Cl,5.64%,–
COc1ccc(OC)c(-c2cc(C(=O)Nc3cnn(Cc4ccc(Cl)cc4Cl)c3)no2)c1,-5.33%,–
COc1ccc(NC(=O)Cn2c(=O)n(Cc3ccc(C(=O)NCc4ccccc4Cl)cc3)c(=O)c3ccccc32)cc1OC,inactive: -9.81%,–
O=C1Nc2ccccc2C1(c1ccc(O)cc1)c1ccc(O)cc1,inactive: -33.7%,–
Cc1ccc(NC(=O)CSc2nc(-c3cccs3)nc3cc(=O)[nH]n23)cc1,-7.16%,–
Cc1nnc(N2CCC(C(=O)NC3CCCCC3)CC2)c2nn(-c3ccc(Cl)cc3)c(C)c12,inactive: -9.95%,–
COc1ccc(S(=O)(=O)Nc2cccc(-c3ccc(N4CCC(C)CC4)nn3)c2)cc1OC,29.9%,–
COc1ccccc1CNC(=O)CC(c1ccc(F)cc1)N1Cc2ccccc2C1=O (stereo not drawn),-18.3%,–
Cc1ccc(C2C(=O)N(C3CCC(C)CC3)CC(=O)N2C2CCCC2)cc1 (stereo not drawn),-13.1%,–
Cc1cc(NS(=O)(=O)c2ccc(NC(=O)COc3c(C)ccc(C)c3C)cc2)nc(C)n1,-14.1%,–
COc1ccc(CNC(=O)c2cc3c(=O)n(Cc4ccco4)ccc3nc2C)cc1,-12.9%,–
O=C(C[C@@H]1CC=CCCC(=O)O[C@H](c2ccccc2)CNC1=O)NCc1ccc(Cl)cc1,inactive: -17%,–
COc1ccc(CC(=O)Nc2sc3c(c2C(=O)Nc2ccccc2)CCCCC3)cc1,inactive: -34.9%,–
Clc1ccc(Nc2nnc(Cc3ccncc3)c3ccccc23)cc1,–,inactive

# Reference: PubChem BioAssay AID1508624 (National Center for Advancing Translational Sciences (NCATS), 2021)
